{
  "source": "the supplement of paper PMC8728848",
  "experiment_in_all_cases": "glycan array binding signal (z-score within array); higher = stronger binding",
  "conditions_in_all_cases": "glycan notation: IUPAC condensed, linker removed",
  "key": {"[1]": {"target": "Neu5Ac(a2-3)Gal(b1-3)[Fuc(a1-4)]GlcNAc(b1-3)Gal(b1-3)[Fuc(a1-4)]GlcNAc", "outline": "(§1)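 Glycan array data came from 3228 arrays in the Consortium for Functional Glycomics database, and only arrays with an available protein sequence were kept. Glycan names were put into IUPAC-condensed notation, and columns mapping to the same glycan were averaged. The binding signal is a within-array Z-score, averaged across arrays of one protein sequence run at different concentrations or buffers and across linkers. A negative Z-score can be read as non-binding.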"}, "[2]": {"target": "Neu5Ac(a2-3)Gal(b1-3)[Fuc(a1-4)]GlcNAc(b1-3)Gal(b1-4)[Fuc(a1-3)]GlcNAc", "outline": "as §1"}, "[3]": {"target": "Neu5Ac(a2-3)Gal(b1-3)[GlcNAc(b1-6)]GalNAc", "outline": "as §1"}, "[4]": {"target": "Neu5Ac(a2-3)Gal(b1-3)[Neu5Ac(a2-6)]GalNAc", "outline": "as §1"}, "[5]": {"target": "Neu5Ac(a2-3)Gal(b1-3)[Neu5Ac(a2-6)]GlcNAc(b1-3)[Fuc(a1-3)[Gal(b1-4)]GlcNAc(b1-6)]Gal(b1-4)Glc", "outline": "as §1"}, "[6]": {"target": "Neu5Ac(a2-3)Gal(b1-3)]Neu5Ac(a2-3)Gal(b1-4)]GlcNAc", "outline": "as §1"}, "Neu5Ac(a2-3)Gal(b1-4)Glc": {"target": "Neu5Ac(a2-3)Gal(b1-4)Glc", "outline": "as §1"}, "[7]": {"target": "Neu5Ac(a2-3)Gal(b1-4)GlcNAc", "outline": "as §1"}, "[8]": {"target": "Neu5Ac(a2-3)Gal(b1-4)GlcNAc(b1-2)Man", "outline": "as §1"}, "[9]": {"target": "Neu5Ac(a2-3)Gal(b1-4)GlcNAc(b1-2)Man(a1-3)[GlcNAc(b1-4)][Neu5Ac(a2-3)Gal(b1-4)GlcNAc(b1-2)Man(a1-6)]Man(b1-4)GlcNAc(b1-4)GlcNAc", "outline": "as §1"}, "[10]": {"target": "Neu5Ac(a2-3)Gal(b1-4)GlcNAc(b1-2)Man(a1-3)[Neu5Ac(a2-3)Gal(b1-4)GlcNAc(b1-2)Man(a1-6)]Man(b1-4)GlcNAc(b1-4)GlcNAc", "outline": "as §1"}, "[11]": {"target": "Neu5Ac(a2-3)Gal(b1-4)GlcNAc(b1-2)Man(a1-3)[Neu5Ac(a2-3)Gal(b1-4)GlcNAc(b1-2)Man(a1-6)]Man(b1-4)GlcNAc(b1-4)[Fuc(a1-6)]GlcNAc", "outline": "as §1"}, "[12]": {"target": "Neu5Ac(a2-3)Gal(b1-4)GlcNAc(b1-2)Man(a1-3)[Neu5Ac(a2-6)Gal(b1-4)GlcNAc(b1-2)Man(a1-6)]Man(b1-4)GlcNAc(b1-4)GlcNAc", "outline": "as §1"}, "[13]": {"target": "Neu5Ac(a2-3)Gal(b1-4)GlcNAc(b1-2)[Neu5Ac(a2-3)Gal(b1-4)GlcNAc(b1-4)]Man(a1-3)[GlcNAc(b1-4)][Neu5Ac(a2-3)Gal(b1-4)GlcNAc(b1-2)[Neu5Ac(a2-3)Gal(b1-4)GlcNAc(b1-6)]Man(a1-6)]Man(b1-4)GlcNAc(b1-4)GlcNAc", "outline": "as §1"}, "[14]": {"target": "Neu5Ac(a2-3)Gal(b1-4)GlcNAc(b1-2)[Neu5Ac(a2-3)Gal(b1-4)GlcNAc(b1-4)]Man(a1-3)[GlcNAc(b1-4)][Neu5Ac(a2-3)Gal(b1-4)GlcNAc(b1-4)Man(a1-6)]Man(b1-4)GlcNAc(b1-4)GlcNAc", "outline": "as §1"}, "[15]": {"target": "Neu5Ac(a2-3)Gal(b1-4)GlcNAc(b1-2)[Neu5Ac(a2-3)Gal(b1-4)GlcNAc(b1-6)]Man(a1-6)[Neu5Ac(a2-3)Gal(b1-4)GlcNAc(b1-2)Man(a1-3)]Man(b1-4)GlcNAc(b1-4)GlcNAc", "outline": "as §1"}, "[16]": {"target": "Neu5Ac(a2-3)Gal(b1-4)GlcNAc(b1-2)[Neu5Ac(a2-3)Gal(b1-4)GlcNAc(b1-6)]Man(a1-6)[Neu5Ac(a2-3)Gal(b1-4)GlcNAc(b1-2)Man(a1-3)][GlcNAc(b1-4)]Man(b1-4)GlcNAc(b1-4)GlcNAc", "outline": "as §1"}, "[17]": {"target": "Neu5Ac(a2-3)Gal(b1-4)GlcNAc(b1-3)Gal", "outline": "as §1"}, "[18]": {"target": "Neu5Ac(a2-3)Gal(b1-4)GlcNAc(b1-3)Gal(b1-3)GlcNAc", "outline": "as §1"}, "[19]": {"target": "Neu5Ac(a2-3)Gal(b1-4)GlcNAc(b1-3)Gal(b1-4)GlcNAc", "outline": "as §1"}, "[20]": {"target": "Neu5Ac(a2-3)Gal(b1-4)GlcNAc(b1-3)Gal(b1-4)GlcNAc(b1-2)Man(a1-3)[Neu5Ac(a2-3)Gal(b1-4)GlcNAc(b1-3)Gal(b1-4)GlcNAc(b1-2)Man(a1-6)]Man(b1-4)GlcNAc(b1-4)GlcNAc", "outline": "as §1"}, "[21]": {"target": "Neu5Ac(a2-3)Gal(b1-4)GlcNAc(b1-3)Gal(b1-4)GlcNAc(b1-3)Gal(b1-4)GlcNAc", "outline": "as §1"}, "[22]": {"target": "Neu5Ac(a2-3)Gal(b1-4)GlcNAc(b1-3)Gal(b1-4)GlcNAc(b1-3)Gal(b1-4)GlcNAc(b1-2)Man(a1-3)[Neu5Ac(a2-3)Gal(b1-4)GlcNAc(b1-3)Gal(b1-4)GlcNAc(b1-3)Gal(b1-4)GlcNAc(b1-2)Man(a1-6)]GalNAc", "outline": "as §1"}, "[23]": {"target": "Neu5Ac(a2-3)Gal(b1-4)GlcNAc(b1-3)Gal(b1-4)GlcNAc(b1-3)GalNAc", "outline": "as §1"}, "[24]": {"target": "Neu5Ac(a2-3)Gal(b1-4)GlcNAc(b1-3)Gal(b1-4)GlcNAc(b1-3)[Neu5Ac(a2-3)Gal(b1-4)GlcNAc(b1-3)Gal(b1-4)GlcNAc(b1-6)]GalNAc", "outline": "as §1"}, "[25]": {"target": "Neu5Ac(a2-3)Gal(b1-4)GlcNAc(b1-3)Gal(b1-4)GlcNAc(b1-6)[Gal(b1-3)]GalNAc", "outline": "as §1"}, "[26]": {"target": "Neu5Ac(a2-3)Gal(b1-4)GlcNAc(b1-3)Gal(b1-4)[Fuc(a1-3)]GlcNAc", "outline": "as §1"}, "[27]": {"target": "Neu5Ac(a2-3)Gal(b1-4)GlcNAc(b1-3)GalNAc", "outline": "as §1"}, "[28]": {"target": "Neu5Ac(a2-3)Gal(b1-4)GlcNAc(b1-3)[Neu5Ac(a2-3)Gal(b1-4)GlcNAc(b1-6)]GalNAc", "outline": "as §1"}, "[29]": {"target": "Neu5Ac(a2-3)Gal(b1-4)GlcNAc(b1-6)GalNAc", "outline": "as §1"}},
  "note": "Some of the results follow.",
  "data": [
    {"binder": "Pbx2 (Cryptococcus neoformans) (protein) AVSPLPSSTELVFYSQKRRRRRICSTATGSLSTPDPTRMTSDPYKRVGMRFSSVPRLLITFLSLLLLVSAAPPCVRFADYDSINQMFIDGGPGTKVLLCPNRLYRLSGPIIFTAADQEIATYGYPTGSERAVLRVEGRNTATAIQGDCRRCARVSVKNLVVDGNRKKLGRMRDFQLATGLVVLGGNEGQSIQNSWIKNPRGFTAIHIREGDKLQCSGARVEKNEIGPVGEEYDPEKDGDDPEMSPLGRPLADGVSIACRDSFIRDNTFRDNTDAAIVVYCSPGTLIHANHIFAQSLSAMAGILMVDSTPFNGDYTGTVVRSNIIDAVSRTIRVGIGIGPTVWSDDTETILTGGSVIGNGLKGRYMGYGIAAAGLKQWTIKDNWDEAKHEGRKSARCFDEPVNPDPIGLLYNRPTMEDCTVQSGFADHDFQYLVCIDGLYDKTNPPKHDPAPLAHDPSPTNAQEDNTVQQDGGDSKSKSIEQPREASDIEAEPSVEKMFSTGSEMMDDVLEHSHQRMHEVIDHLSRRIDILGAASAGKGSGDSKISEVLDPAMSSHLEKLQRKIEHLEFSLRSQIETAIQLRSAIQGWDQEMALVTDWEYDILLDVRHKLELSSYPHDQPLDPRLMRGQSYLNNEAVLVDDHSHPSLEGENLRAMSDRARLNANEEA", "values": [
      {"measurement": "glycan array binding signal (z-score)", "setting": "[1]", "result": -0.331},
      {"measurement": "glycan array binding signal (z-score)", "setting": "[2]", "result": -0.403},
      {"measurement": "glycan array binding signal (z-score)", "setting": "[3]", "result": -0.075},
      {"measurement": "glycan array binding signal (z-score)", "setting": "[4]", "result": -0.113},
      {"measurement": "glycan array binding signal (z-score)", "setting": "[5]", "result": -0.609},
      {"measurement": "glycan array binding signal (z-score)", "setting": "[6]", "result": -0.589},
      {"measurement": "glycan array binding signal (z-score)", "setting": "Neu5Ac(a2-3)Gal(b1-4)Glc", "result": -0.585},
      {"measurement": "glycan array binding signal (z-score)", "setting": "[7]", "result": -0.694},
      {"measurement": "glycan array binding signal (z-score)", "setting": "[8]", "result": 4.34},
      {"measurement": "glycan array binding signal (z-score)", "setting": "[9]", "result": 0.56},
      {"measurement": "glycan array binding signal (z-score)", "setting": "[10]", "result": -0.607},
      {"measurement": "glycan array binding signal (z-score)", "setting": "[11]", "result": -0.396},
      {"measurement": "glycan array binding signal (z-score)", "setting": "[12]", "result": 0.264},
      {"measurement": "glycan array binding signal (z-score)", "setting": "[13]", "result": -0.213},
      {"measurement": "glycan array binding signal (z-score)", "setting": "[14]", "result": -0.025},
      {"measurement": "glycan array binding signal (z-score)", "setting": "[15]", "result": 0.027},
      {"measurement": "glycan array binding signal (z-score)", "setting": "[16]", "result": 0.444},
      {"measurement": "glycan array binding signal (z-score)", "setting": "[17]", "result": -0.058},
      {"measurement": "glycan array binding signal (z-score)", "setting": "[18]", "result": 0.027},
      {"measurement": "glycan array binding signal (z-score)", "setting": "[19]", "result": -0.522},
      {"measurement": "glycan array binding signal (z-score)", "setting": "[20]", "result": 1.29},
      {"measurement": "glycan array binding signal (z-score)", "setting": "[21]", "result": -0.461},
      {"measurement": "glycan array binding signal (z-score)", "setting": "[22]", "result": 0.926},
      {"measurement": "glycan array binding signal (z-score)", "setting": "[23]", "result": -0.28},
      {"measurement": "glycan array binding signal (z-score)", "setting": "[24]", "result": -0.471},
      {"measurement": "glycan array binding signal (z-score)", "setting": "[25]", "result": -0.121},
      {"measurement": "glycan array binding signal (z-score)", "setting": "[26]", "result": -0.444},
      {"measurement": "glycan array binding signal (z-score)", "setting": "[27]", "result": 0.743},
      {"measurement": "glycan array binding signal (z-score)", "setting": "[28]", "result": -0.557},
      {"measurement": "glycan array binding signal (z-score)", "setting": "[29]", "result": 0.057}
    ]}
  ]
}
